Structures can show the parent of a compound that is named as a salt.
Target: T1, human NTCP (Homo sapiens, UniProt Q14973)
T1 sequence (Q14973 1-349): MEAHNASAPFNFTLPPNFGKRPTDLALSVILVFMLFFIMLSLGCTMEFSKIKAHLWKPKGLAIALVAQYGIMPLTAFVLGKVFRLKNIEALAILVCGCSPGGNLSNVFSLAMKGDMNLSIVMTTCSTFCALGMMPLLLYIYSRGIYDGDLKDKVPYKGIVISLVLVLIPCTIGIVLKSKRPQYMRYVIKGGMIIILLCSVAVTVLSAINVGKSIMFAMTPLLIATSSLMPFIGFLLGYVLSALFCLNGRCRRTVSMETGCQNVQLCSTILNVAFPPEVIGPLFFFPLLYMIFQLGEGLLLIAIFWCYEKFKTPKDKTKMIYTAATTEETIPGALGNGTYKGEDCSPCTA
Assay: Screening fluorescent competitive Myrcludex B-FITC binding assay (96-well, 10 µM drug)
Details: 0.5 h, read-out: %NTCP binding, Prestwick library screen, 10 µM drug, Myrcludex B-FITC binding

Structure (SMILES)	remaining activity at 10 µM
CCOC(=O)c1cncn1[C@H](C)c1ccccc1 [Etomidate]	102%

Target: T1, human NTCP
Assay: Screening taurocholate uptake assay (96-well, [14C]taurocholate, 10 µM drug)
Details: 10 min, read-out: %NTCP activity, screening taurocholate uptake, 10 µM drug, Prestwick library

Structure (SMILES)	remaining activity at 10 µM
CCN(C(C)=O)c1cccc(-c2ccnc3c(C#N)cnn23)c1 [Zaleplon]	125%
CCC1(CC)C(=O)C=CNC1=O [Pyrithyldione]	104%
O=c1[nH]c2ccccc2n1CCCN1CCC(n2c(=O)[nH]c3cc(Cl)ccc32)CC1 [Domperidone]	53.4%
C[n+]1ccccc1/C=N/O [Pralidoxime chloride]	70%
CCC1(c2cccc(O)c2)CCCCN(C)C1 (centres unmarked) [Meptazinol hydrochloride]	53.9%
Cn1c(=O)c2[nH]cnc2n(C)c1=O [Aminophylline]	93.8%
C[C@]12N[C@H](Cc3ccccc31)c1ccccc12 [Dizocilpine maleate]	81.6%
OC(c1ccccc1)(c1ccccc1)C1CCNCC1 [Azacyclonol]	56.6%
C[C@]12C/C(=C/O)C(=O)C[C@@H]1CC[C@@H]1[C@@H]2CC[C@@]2(C)[C@H]1CC[C@]2(C)O [Oxymetholone]	87.6%
CCN(C)C(=O)Oc1cccc([C@H](C)N(C)C)c1 [Rivastigmine]	115%
C[C@@H]1C[C@H]2[C@@H]3C[C@H](F)C4=CC(=O)C=C[C@]4(C)[C@@]3(F)[C@@H](O)C[C@]2(C)[C@@]1(O)C(=O)COC(=O)C(C)(C)C [Flumethasone pivalate]	108%
C=CCOC(Cn1ccnc1)c1ccc(Cl)cc1Cl (centres unmarked) [Enilconazole]	78.7%
NC(=O)C[S+]([O-])C(c1ccccc1)c1ccccc1 (centres unmarked) [Modafinil]	52.6%
C=C1C[C@@H]2[C@H](CC[C@]3(C)C(=O)CC[C@@H]23)[C@@]2(C)C=CC(=O)C=C12 [Exemestane]	120%
CC(C)(C)NCC(O)c1cc(Cl)c(N)c(Cl)c1 (centres unmarked) [Clenbuterol hydrochloride]	69.6%
COc1ccc(OC)c(C(O)C(C)N)c1 (centres unmarked) [Methoxamine hydrochloride]	66.9%
CC(NC(C)(C)C)C(=O)c1cccc(Cl)c1 (centres unmarked) [Bupropion hydrochloride]	58.7%
C=CC[C@]1(O)CC[C@H]2[C@@H]3CCC4=CC(=O)CCC4=C3C=C[C@@]21C [Altrenogest]	90.2%
NC(=O)OCCCc1ccccc1 [Phenprobamate]	114%
CC(=O)O[C@H]1C[C@H](O[C@H]2[C@@H](O)C[C@H](O[C@H]3[C@@H](O)C[C@H](O[C@H]4CC[C@@]5(C)[C@H](CC[C@@H]6[C@@H]5C[C@@H](O)[C@]5(C)[C@@H](C7=CC(=O)OC7)CC[C@]65O)C4)O[C@@H]3C)O[C@@H]2C)O[C@H](C)[C@H]1O[C@@H]1O[C@H](CO)[C@@H](O)[C@H](O)[C@H]1O [Lanatoside C]	51%
C=C1CC[C@@]2(O)[C@H]3Cc4ccc(O)c5c4[C@@]2(CCN3CC2CC2)[C@H]1O5 [Nalmefene hydrochloride]	121%
c1ccc2c(c1)Nc1ccccc1S2 [Phenothiazine]	93.5%
C#CCN(C)[C@H](C)Cc1ccccc1 [Selegiline hydrochloride]	59.9%
NC(=NCc1ccccc1)NC(=O)c1nc(Cl)c(N)nc1N [Benzamil hydrochloride]	74.7%

Same assay, conditions: screening taurocholate uptake, 10 µM drug, Prestwick library

Structure (SMILES)	%NTCP activity
CN(Cc1cnc2nc(N)nc(N)c2n1)c1ccc(C(=O)N[C@@H](CCC(=O)O)C(=O)O)cc1 (racemic) [Amethopterin (R,S)]	71.2892%
C=C1c2c(Cl)ccc(O)c2C(=O)C2=C(O)[C@]3(O)C(=O)C(C(N)=O)=C(O)[C@@H](N(C)C)[C@@H]3[C@@H](O)[C@H]12.O=C(O)c1cc(S(=O)(=O)O)ccc1O [Meclocycline sulfosalicylate]	58.2901%
CN(C)C(=O)Oc1ccc[n+](C)c1.[I-] [Pyridostigmine iodide]	124.801%
CN1[C@@H]2CC(OC(=O)[C@H](CO)c3ccccc3)C[C@H]1[C@@H]1O[C@@H]12.Cl (some centres unmarked) [Scopolamine hydrochloride]	114.694%
CN(C)CCN1C(=O)c2ccccc2N(C)c2ccccc21.Cl [Dibenzepine hydrochloride]	39.6298%
C[C@]12CCC(=O)C=C1CC[C@@H]1[C@@H]2[C@@H](O)C[C@@]2(C)[C@H]1CC[C@]2(O)C(=O)CO [Hydrocortisone base]	47.3578%
CS(=O)(=O)O.O=C(O[C@H]1C[C@H]2CC3C[C@@H](C1)N2CC3=O)c1c[nH]c2ccccc12 [Dolasetron mesilate]	77.9066%
Cl.O=C1OC(CN2CCOCC2)CN1/N=C/c1ccc([N+](=O)[O-])o1 (centres unmarked) [Furaltadone hydrochloride]	93.127%
CC(CN(C)C)C(C)(O)Cc1ccc(Cl)cc1.Cl (centres unmarked) [Clobutinol hydrochloride]	53.2009%
CC(C)NCC(O)c1cc(O)cc(O)c1.CC(C)NCC(O)c1cc(O)cc(O)c1.O=S(=O)(O)O (centres unmarked)	46.7406%
CC[N+](CC)(CC)CCC(O)(c1ccccc1)C1CCCCC1.[Cl-] (centres unmarked) [Tridihexethyl chloride]	72.0524%
O=C1c2cccc(O)c2C(=O)c2c(O)cccc21 [1,8-Dihydroxyanthraquinone]	74.8966%
CCn1cc(C(=O)[O-])c(=O)c2ccc(C)nc21.[Na+] [Nalidixic acid sodium salt]	93.1251%
COc1cc(C(=O)OCCCN2CCCN(CCCOC(=O)c3cc(OC)c(OC)c(OC)c3)CC2)cc(OC)c1OC.Cl.Cl [Dilazep dihydrochloride]	103.189%
CS(=O)(=O)O.Cc1ccc2c(c1)c1c3n2CCNC3CCC1 (centres unmarked) [Pirlindole mesylate]	102.068%
O=C1NCN(c2ccccc2)C12CCN(CCCC(c1ccc(F)cc1)c1ccc(F)cc1)CC2 [Fluspirilen]	99.8244%
N[C@@H](C(=O)N[C@@H]1C(=O)N2C(C(=O)O)=C(Cl)CC[C@H]12)c1ccccc1 [Loracarbef]	100.693%
Cc1cc(CC(=O)[O-])n(C)c1C(=O)c1ccc(Cl)cc1.[Na+] [Zomepirac sodium salt]	105.704%
CCN1CCC[C@H]1CNC(=O)c1c(OC)ccc(Br)c1OC.Cl [Remoxipride Hydrochloride]	99.19%
NC(=O)OCC(O)COc1ccc(Cl)cc1 (centres unmarked) [Chlorphensin carbamate]	140.827%

Structure (SMILES)	%NTCP activity
O.O=C1C(O)=C(O)C(=O)C(O)=C1O [Tetrahydroxy-1,4-quinone hydrate]	112.78%
CC[N+](C)(CC)CCC[n+]1c(-c2ccccc2)c2cc(N)ccc2c2ccc(N)cc21.[I-].[I-] [Propidium iodide]	56.1956%
Cc1cccc(CN2CCN(C(c3ccccc3)c3ccc(Cl)cc3)CC2)c1.Cl.Cl (centres unmarked) [Meclozine dihydrochloride]	43.965%
N#Cc1cc(NC(=O)C(=O)O)c(Cl)c(NC(=O)C(=O)O)c1 [Lodoxamide]	50.9892%
COc1ccc(CCN)cc1OC [Homoveratrylamine]	104.423%
CNCC(O)c1ccc(O)cc1 (racemic) [(+,-)-Synephrine]	96.7977%
C=CCN1CCCC1CNC(=O)c1cc2[nH]nnc2cc1OC.Cl (centres unmarked) [Alizapride HCl]	94.6685%
CCN(CC)CCNC(=O)c1cc(Cl)c(N)cc1OC.Cl [Metoclopramide monohydrochloride]	131.228%
NC(N)=NCc1cccc(I)c1.NC(N)=NCc1cccc(I)c1.O=S(=O)(O)O [Iobenguane sulfate]	89.644%
CN1CCN(C(c2ccccc2)c2ccccc2)CC1.Cl [Cyclizine hydrochloride]	63.939%
CC(C)NNC(=O)c1ccncc1.O=P(O)(O)O [Iproniazide phosphate]	94.348%
CCN(CC)CCc1nc(-c2ccccc2)no1.O=C(O)CC(O)(CC(=O)O)C(=O)O [Oxalamine citrate salt]	107.21%
CCC(NC(C)C)C(O)c1ccc(O)c(O)c1.CS(=O)(=O)O (centres unmarked) [Isoetharine mesylate salt]	106.702%
C#C[C@]1(O)CC[C@H]2[C@@H]3CCc4cc(OC)ccc4[C@H]3CC[C@@]21C [Ethynylestradiol 3-methyl ether]	106.862%
CCCC(=O)Nc1ncnc2c1ncn2[C@@H]1O[C@@H]2COP(=O)([O-])O[C@H]2[C@H]1OC(=O)CCC.[Na+] [Bucladesine sodium salt]	86.4993%
COc1ccc([C@@H]2CC(=O)c3c(O)cc(O[C@@H]4O[C@H](CO[C@@H]5O[C@@H](C)[C@H](O)[C@@H](O)[C@H]5O)[C@@H](O)[C@H](O)[C@H]4O)cc3O2)cc1O [Hesperidin]	92.3807%
CN(C)C(=O)Oc1cc(OC(=O)N(C)C)cc(C(O)CNC(C)(C)C)c1.Cl (centres unmarked) [Bambuterol hydrochloride]	105.036%
CC(=O)NC1CCSC1=O (racemic) [N-Acetyl-DL-homocysteine Thiolactone]	111.761%
CC(C)(C)NC[C@@H](O)COc1cccc2c1CCCC2=O.Cl [(+) -Levobunolol hydrochloride]	110.169%
CNc1ncnc2c1ncn2[C@@H]1O[C@H](CO)[C@@H](O)[C@H]1O [N6-methyladenosine]	77.1948%

— paper PMC5681660, “Reduced hepatitis B and D viral entry using clinically applied drugs as novel inhibitors of the bile acid transporter NTCP” (Scientific Reports, 2017)
